The test system of the test is P-388 mouse leukemia cells. Nature of the test: P-388 in vivo activity. The conditions noted are these: QD 1-9, IP, significant activity T/C ≧ 125.

Molecules are shown by their SMILES. Starred links: 1 amine or outer side, 2 acyl side, 3 side chain; linkers in the order of their positions; H or OH if unused. Positions of bridges follow the written chain, without caps; N, C: chain ends. Non-standard residues stand in square brackets, D forms with d. Residues, ends and D or L forms follow the SMILES beside them. *: point of attachment. X1 = CC[C@H](C)[C@@H](N[*:1])[C@@H](O)CC(=O)O[C@H](C(=O)[C@H](C)C(=O)[*:2])C(C)C; NMeY = CN[C@@H](Cc1ccc(O)cc1)C(=O)O; dNMeL = CN[C@H](CC(C)C)C(=O)O; Pyruvoyl = CC(=O)C(=O)*

Take `CC[C@H](C)[C@H]1NC(=O)[C@@H](NC(=O)[C@@H](CC(C)C)N(C)C(=O)[C@@H]2CCCN2C(=O)C(C)=O)[C@@H](C)OC(=O)[C@H](Cc2ccc(OC)cc2)N(C)C(=O)[C@@H]2CCCN2C(=O)[C@H](CC(C)C)NC(=O)[C@@H](C)C(=O)[C@H](C(C)C)OC(=O)C[C@@H]1O` [DDB, dehydrodidemnin B] (Pyruvoyl-P[dNMeL]T[X1]LP[NMeY](Me); ester 3-C): the “P388 % T/C” value (80 μg/kg/injn) was found to be 195% and the “P388 % T/C” value (160 μg/kg/injn) worked out at 210%.

For the origin of these results see patent USRE39887E1, “Dehydrodidemnin B” (Pharma Mar, S.A., priority 1989, dated 2007).
